Hit rate of the full screen: of about 420,000 compounds, about 64,000 (15%) were called active. Inconclusive results, whose numbers are uncertain, are shown with a selection of clear calls. The call rests on the fitted dose curve; in most records, active means well fitted inhibition curve with a large enough effect; inconclusive means small, poorly fitted or top-dose-only effect; inactive means flat fitted curve, though single readings scatter. No potency is given beside an inconclusive call; the fits are too rough.
test: qHTS for Inhibitors of human tyrosyl-DNA phosphodiesterase 1 (TDP1): qHTS in cells in absence of CPT; conditions: DT40 Tdp1-/- hTDP1 cells, no CPT, ATP luminescence, 48 h; activity change, negative = growth inhibition: at 46.2 µM (top of the series) unless noted; further: nearly all actives have a fitted effect of over 55% in size
Summary of the method: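 Compound effects on proliferation are scored in DT40 Tdp1-/-;hTDP1 cells in the absence of CPT. ATP levels (CellTiter-Glo luminescence) are recorded after a ≥48 hr, 37 °C incubation.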
On the % scale 0 is the no-effect control and ±100 the full control effect; potency means the concentration at half of the fitted maximal effect; tags describe the fitted curve by direction and shape.

Question: Which Potency does the source give for `O=[N+]([O-])c1ccc(CSC2=NCCN2)cc1` here?
Answer: The Potency was active: 20.6 µM.

Question: With `C#CCNC(=O)C1=C[C@H](C(C)(C)C)C[C@H](OCc2ccc(CO)cc2)O1` as the molecule, how does the Potency read?
Answer: Its Potency is inconclusive [inhibitor, single point].

Question: For `COc1ccc(NC(=O)c2ccc(Cl)nc2)cc1S(=O)(=O)N1CCCCC1`, which Potency is on record?
Answer: The Potency was inconclusive [inhibitor, single point].

Question: With `OCCN1CCN(CC/C=C2/c3ccccc3Sc3ccc(C(F)(F)F)cc32)CC1` as the molecule, how does the Potency read?
Answer: The Potency was active: 9.44 µM.

Question: With `COc1ccccc1-c1noc(CCC(=O)Nc2cc(C(F)(F)F)ccc2Cl)n1` as the molecule, how does the Potency read?
Answer: The Potency was inconclusive [inhibitor, single point].

Question: With `Brc1ccc(-n2c(SCc3nc4ccccc4[nH]3)nnc2-c2ccncc2)cc1` as the molecule, how does the Potency read?
Answer: Its Potency is inconclusive [inhibitor, single point].

Question: With `O=C(NC(NNc1ccc([N+](=O)[O-])cc1)(C(F)(F)F)C(F)(F)F)c1ccc(F)cc1` as the molecule, how does the Potency read?
Answer: Its Potency is active: 18.4 µM.

Question: For `Cc1ccc(S(=O)(=O)N2C[C@H]3C(=O)C[C@@H](c4cccs4)N(S(=O)(=O)c4ccc(C)cc4)[C@H]3C[C@H]2c2ccccc2)cc1`, which Potency is on record?
Answer: Its Potency is inconclusive [inhibitor, single point].

Question: Which Potency does the source give for `COc1ccccc1N1C(=O)c2cccc3c(N(C)CCO)ccc(c23)C1=O` here?
Answer: Its Potency is inconclusive [inhibitor, partial curve].

Question: With `COCCCNC(=S)NC(=O)c1ccc(C)cc1` as the molecule, how does the Potency read?
Answer: The Potency was active: 18.4 µM.

Question: For `O=C(c1ccc(Cl)nc1)N1CCN(S(=O)(=O)c2ccc3c(c2)OCCO3)CC1`, which Potency is on record?
Answer: Its Potency is inconclusive [inhibitor, partial curve].

Question: For `CCOC(=O)c1ccc(NC(=O)Cn2c(=O)cc(C)c3c(C)nn(-c4cccc(F)c4)c32)cc1`, which Potency is on record?
Answer: The Potency was active: 18.4 µM.

Question: With `CCCCCC(=O)N1C[C@@H](O)[C@H](n2cc(-c3ccc(F)cc3)nn2)C[C@@H]1c1ccccc1` as the molecule, how does the Potency read?
Answer: The Potency was active: 10.3 µM.

Question: For `COc1ccc(S(=O)(=O)N2CCOCC2)cc1NC(=O)Cc1ccc2c(c1)OCCO2`, which Potency is on record?
Answer: Its Potency is inconclusive [inhibitor, partial curve].

Question: With `Cc1ccc(NC(=O)c2cc3cc(C)ccc3n2C)cc1` as the molecule, how does the Potency read?
Answer: Its Potency is “inactive”.

Question: With `CCOC(=O)c1cc(-c2nnc(-c3cc(OC)c(OC)c(OC)c3)o2)c(C)nc1C` as the molecule, how does the Potency read?
Answer: Its Potency is active: 16.4 µM.

Question: For `CCOCC(=O)Nc1c(C(=O)OCC)oc2ccccc12`, which Potency is on record?
Answer: Its Potency is “inactive”.

Question: For `Cc1nn(Cc2ccccc2Cl)c(C)c1NC(=O)c1cc(C(C)C)on1`, which Potency is on record?
Answer: Its Potency is inconclusive [inhibitor, partial curve].

Question: For `O=C(NCCN1CCOCC1)c1cc(-c2cccc(Cl)c2)on1`, which Potency is on record?
Answer: The Potency was inconclusive [inhibitor, partial curve].

Question: For `CN(C)C(CNC(=O)c1oc2ccccc2c1CSc1ncn[nH]1)c1ccco1` (stereo not given), which Potency is on record?
Answer: Its Potency is inconclusive [inhibitor, partial curve].

Question: With `CN(C)CCCCOc1ccc(F)cc1` as the molecule, how does the Potency read?
Answer: The Potency was inconclusive [inhibitor, single point].

Question: Which Potency does the source give for `CC(C)[C@H](CO)Nc1nc(Nc2ccc(Cl)c(C(=O)O)c2)c2ncn(C(C)C)c2n1` here?
Answer: The Potency was “inactive”.

Question: Which Potency does the source give for `COc1cc(NC(=O)NCc2ccncc2)cc(OC)c1OC` here?
Answer: The Potency was “inactive”.

Question: For `OC(COc1ccccc1)CN1CCN(C(c2ccccc2)c2ccccc2)CC1` (stereo not given), which Potency is on record?
Answer: The Potency was inconclusive [inhibitor, partial curve, poor fit].

Question: With `O=C(NCCc1ccccc1)c1sc2ncccc2c1-n1cccc1` as the molecule, how does the Potency read?
Answer: Its Potency is inconclusive [inhibitor, single point].

Question: With `COc1ccc(CCNc2nc(-c3ccc(F)cc3)c(CC(=O)O)s2)cc1OC` as the molecule, how does the Potency read?
Answer: Its Potency is active: 25.9 µM.

Question: For `CCOc1ccc(N(CC(=O)N2CCN(c3ccccc3OC)CC2)S(=O)(=O)c2ccc(C)cc2)cc1`, which Potency is on record?
Answer: Its Potency is active: 20.6 µM.

Question: For `O=C(Nc1ccc2c(c1)C(=O)OC2)c1ccc(F)cc1F`, which Potency is on record?
Answer: The Potency was “inactive”.

Question: For `CCCc1cnc2c(c1SCC(=O)N1CCC(C)CC1)c(=O)n(C)c(=O)n2C`, which Potency is on record?
Answer: Its Potency is active: 20.6 µM.

Question: With `Cc1cc(Cl)n2nc(C)c(-c3ccc(Cl)cc3)c2n1` as the molecule, how does the Potency read?
Answer: The Potency was inconclusive [inhibitor, single point].

Question: For `Cc1cnc(N2C(=O)c3ccc([N+](=O)[O-])cc3C2=O)s1`, which Potency is on record?
Answer: The Potency was “inactive”.

Question: For `CC1(C)c2ccccc2-c2nc3ccccc3cc2C1N1CCOCC1` (stereo not given), which Potency is on record?
Answer: Its Potency is inconclusive [inhibitor, partial curve].

Question: Which Potency does the source give for `Nc1c(C(=O)N2CCOCC2)sc2nc(N3CCOCC3)c3c(c12)CCCC3` here?
Answer: Its Potency is inconclusive [inhibitor, partial curve].

Question: Which Potency does the source give for `CCOc1ccc(-c2c(=O)n(OCC)c3ccccc3[n+]2[O-])cc1` here?
Answer: The Potency was “inactive”.

Question: Which Potency does the source give for `CC(=O)c1ccc(S(=O)(=O)N2CCN(C(=O)c3ccc(N)c([N+](=O)[O-])c3)CC2)cc1` here?
Answer: Its Potency is inconclusive [inhibitor, partial curve, poor fit].

Question: With `CCN(CC)CCn1c2ccccc2c(=O)c2c(O)ccc(O)c21` as the molecule, how does the Potency read?
Answer: Its Potency is active: 20.6 µM.

Question: For `COc1ccc(C(=O)Nc2nc(-c3ccccc3)c(C(C)=O)s2)c(OC)c1`, which Potency is on record?
Answer: The Potency was inconclusive [inhibitor, single point].

Question: With `CCn1c(O)c(N=NC(=O)CNC(=O)c2ccccc2F)c2ccccc21` as the molecule, how does the activity change, negative = growth inhibition read?
Answer: The activity change, negative = growth inhibition was inconclusive: -34.9% [inhibitor].

Question: For `CCc1nnc(NC(=O)Cc2ccc(Br)cc2)s1`, which Potency is on record?
Answer: Its Potency is “inactive”.

Question: Which Potency does the source give for `CC(CNC(=O)c1ccccc1[N+](=O)[O-])NC(=O)c1ccccc1[N+](=O)[O-]` (stereo not given) here?
Answer: Its Potency is “inactive”.

Question: Which Potency does the source give for `CCCCc1c(O)nc(SCC(=O)N2CCOCC2)n(-c2ccc(C)cc2)c1=O` here?
Answer: The Potency was inconclusive [inhibitor, single point].

Question: Which Potency does the source give for `Cc1c(CCC(=O)NCCCn2ccnc2)c(=O)oc2c(C)c3oc4c(c3cc12)CCCC4` here?
Answer: The Potency was inconclusive [inhibitor, single point].

Question: With `NC(=NCCc1ccc(Cl)cc1)NS(=O)(=O)c1ccccc1` as the molecule, how does the Potency read?
Answer: The Potency was “inactive”.

Question: With `Cc1cc(NC(=O)C(C)Oc2ccc(Cl)cc2Cl)n(-c2ccccc2)n1` (stereo not given) as the molecule, how does the Potency read?
Answer: The Potency was inconclusive [inhibitor, single point].

Question: Which Potency does the source give for `Cc1ccc(-n2nc3c(c2NC(=O)c2cccs2)CSC3)cc1` here?
Answer: The Potency was inconclusive [inhibitor, single point].

— PubChem BioAssay AID686978 (National Center for Advancing Translational Sciences (NCATS), 2013)
